# Publication PMC4336329 (PLoS ONE, 2015)
# Out of some 310,000 compounds screened, about 2,200 (0.71%) showed an effect of 50% or more. The effect is printed as a negative number. The list shows a part of the results.
# Target: human ether-à-go-go-related gene (hERG) potassium channel (human, UniProt Q12809)
# Assay: primary screen, population patch clamp on CHO cells stably expressing hERG
# Chain of human ether-à-go-go-related gene (hERG) potassium channel (Q12809 whole entry, looked up): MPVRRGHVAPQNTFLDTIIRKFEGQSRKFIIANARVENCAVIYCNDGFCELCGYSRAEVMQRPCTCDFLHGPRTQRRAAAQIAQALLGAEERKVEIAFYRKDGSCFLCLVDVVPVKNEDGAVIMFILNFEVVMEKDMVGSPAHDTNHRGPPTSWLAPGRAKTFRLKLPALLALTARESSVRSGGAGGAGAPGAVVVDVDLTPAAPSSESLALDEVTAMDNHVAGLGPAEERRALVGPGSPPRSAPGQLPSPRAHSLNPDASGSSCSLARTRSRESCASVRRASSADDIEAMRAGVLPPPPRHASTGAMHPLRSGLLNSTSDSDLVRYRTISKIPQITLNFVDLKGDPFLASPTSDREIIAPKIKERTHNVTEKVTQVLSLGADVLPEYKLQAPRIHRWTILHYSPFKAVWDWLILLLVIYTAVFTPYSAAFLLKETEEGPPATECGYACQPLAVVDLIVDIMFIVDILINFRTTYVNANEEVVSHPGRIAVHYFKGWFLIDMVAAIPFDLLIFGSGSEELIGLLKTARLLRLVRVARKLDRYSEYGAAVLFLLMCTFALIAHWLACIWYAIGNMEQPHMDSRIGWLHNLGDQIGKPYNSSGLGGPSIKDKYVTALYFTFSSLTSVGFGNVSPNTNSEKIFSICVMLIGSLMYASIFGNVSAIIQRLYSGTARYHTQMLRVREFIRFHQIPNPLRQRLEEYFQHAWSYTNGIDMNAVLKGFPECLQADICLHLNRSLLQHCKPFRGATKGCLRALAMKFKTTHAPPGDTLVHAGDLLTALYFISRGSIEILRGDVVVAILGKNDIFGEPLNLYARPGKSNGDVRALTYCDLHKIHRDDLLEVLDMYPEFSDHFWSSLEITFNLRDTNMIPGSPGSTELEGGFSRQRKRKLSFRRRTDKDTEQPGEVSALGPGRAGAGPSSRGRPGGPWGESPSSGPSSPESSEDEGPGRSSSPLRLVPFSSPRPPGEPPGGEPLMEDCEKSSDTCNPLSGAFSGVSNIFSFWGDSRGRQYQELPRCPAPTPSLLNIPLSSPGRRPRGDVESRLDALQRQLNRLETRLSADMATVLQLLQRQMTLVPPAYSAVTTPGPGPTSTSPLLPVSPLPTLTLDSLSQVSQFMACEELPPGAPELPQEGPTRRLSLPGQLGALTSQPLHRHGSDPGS
row,SMILES,"hERG current change (%, negative = inhibition) at 1uM"
1,CC(=O)n1nc(-c2cccc(C)c2)nc1SCC(=O)Nc1ccccc1,-4.13%
2,COc1ccc(NC(=O)c2cnc(C)cn2)cc1-n1cnnn1,13.3%
3,CC(=O)Nc1cccc(NC(=O)C(=O)NCC(c2ccco2)N2CCc3ccccc32)c1 (stereo not shown),3.12%
4,CCC1/C(=N\O)CC(c2ccco2)NC1c1ccco1 (stereo not shown),11.6%
5,Cc1ccc(N(CC(O)CN2CCCCC2)S(=O)(=O)c2ccc(C)cc2)cc1 (stereo not shown),12.8%
6,CS(=O)(=O)N1CCC(Oc2ccccc2C(=O)NCCCc2cccnc2)CC1,13.7%
7,CC(=O)Oc1ccc(/C=C(\NC(=O)c2cccc(Br)c2)C(=O)Nc2ccc(C(=O)O)cc2)cc1,1.11%
8,S=C(NCc1ccccc1)NCc1ccc(Cl)cc1,13.7%
9,CCSc1cc(N2CCCC2)nc(-c2ccc(Cl)cc2)n1,19.1%
10,COc1ccc(/C=N/NC(=O)c2ccc3c(c2)OCCO3)cc1[N+](=O)[O-],-3.9%
11,CN(C)c1nc(N)nc(CSc2ccccn2)n1,14.8%
12,Cc1ccc(OCc2nnc(SCC(=O)Nc3cccc4ccccc34)n2-c2ccccc2)cc1,18%
13,CC(=O)c1ccc(Oc2cc(C)nc(NCc3ccccc3)n2)cc1,-0.431%
14,C=C(C)C1Cc2c(C)nn(-c3ccccn3)c2C1 (stereo not shown),14%
15,O=[N+]([O-])c1ccccc1S(=O)(=O)Nc1cccc2cccnc12,2.85%
16,CC(C)[C@H](NC(=O)N1CCn2c1nc1ccccc12)C(=O)NCc1ccc(F)cc1,7.56%
17,Cc1cc2c(cc1S(=O)(=O)Nc1cccc(F)c1)n(C)c(=O)c(=O)n2C,-2.35%
18,Nc1ccc(-c2nc3cc(N)ccc3o2)cc1,10.5%
19,Cc1ccc(C(=O)N(C)CCOc2ccccc2)cc1S(=O)(=O)N1CCCCC1,-1.43%
20,CC(C)CNc1nc(Oc2ccc(=O)n(-c3ccccc3)n2)nc(N2CCOCC2)n1,8.69%
21,O=C(CNC(=O)c1ccccc1)N/N=C/c1cn[nH]c1-c1ccccc1,13.1%
22,COC(=O)c1c[nH]c(=O)c2ccccc12,22.6%

row,SMILES,"hERG current change (%, negative = inhibition) at 1uM"
1,CC(=O)N1CCN(c2ccc(NC(=O)c3ccc([N+](=O)[O-])cc3)cc2)CC1,8.21%
2,CCOc1ccc(-c2c[n+](=O)c3c(n2[O-])CCCC3)c(OCC)c1,2.6%
3,O=C(CSc1ncn[nH]1)NCc1ccccc1Cl,13.5%
4,CCS(=O)(=O)N1CCC(C(=O)O)CC1,16.8%
5,O=C(O)c1ccccc1Nc1cccc(OCc2ccc3ccccc3n2)c1,16.5%
6,CC(C)COP(=O)(OCC(C)C)C(O)c1ccc2c(c1)OCO2 (stereo not shown),11.2%
7,CC1Sc2ccc(S(=O)(=O)N3CCN(c4ccccc4)CC3)cc2NC1=O (stereo not shown),6.41%
8,COc1ccc(CN2CCC(=O)N([C@H](CO)Cc3ccccc3)CC2)cc1,1.95%
9,COCCOc1cc(N(CC(=O)N(C)C)S(=O)(=O)c2ccccc2)c(Cl)cc1Cl,10.8%
10,Cc1ccc(/C=N/N2CCN(Cc3ccccc3)CC2)cc1,11%
11,CCOc1ccc(S(=O)(=O)N2CCC(C(=O)NCc3ccco3)CC2)cc1,-14.5%
12,COC(=O)C(Nc1ccccc1Cl)(c1cc(C)c(O)c(C)c1)C(F)(F)F (stereo not shown),4.38%
13,CC(C)c1nnc(NC(=O)CCC(=O)Nc2ccc(Cl)cc2)s1,19.5%
14,COc1ccc(-c2c(NC(=O)c3ccco3)n(-c3ccc(C)cc3)nc(C)c2=O)cc1,18.6%
15,CC(C)Cn1c(N)c(/C=N/NC(=O)c2ccc(Cl)cc2)c(=O)n(C)c1=O,18.2%
16,CCOCCc1nnc(NC(=O)c2cc(OC)c(OC)cc2[N+](=O)[O-])s1,6%
17,Cc1ccc(NC(=O)CN(C)C(=O)C(c2ccccc2)c2ccccc2)cc1,7.27%
18,CCCOP(=O)(c1ccc(N(C)C)cc1)C(O)c1ccc(N(C)C)cc1 (stereo not shown),14.6%
19,c1ccc(CCNCCOc2ccccc2)cc1,8.5%
20,CC(/C=N/n1c(-c2ccncc2)n[nH]c1=S)=C\c1ccco1,20.7%
21,CCOC(=O)c1c(C)sc(Sc2ccc(Cl)cc2[N+](=O)[O-])c1OC,10.2%
22,CCCC(CCC(=O)NC1CCCCC1)C(=O)O (stereo not shown),10.7%

row,SMILES,"hERG current change (%, negative = inhibition) at 1uM"
1,N#Cc1c(SCC(=O)Nc2ccc(C(F)(F)F)cc2)sc2c(O)cc(=O)[nH]c12,14.8%
2,CC(C)(C)c1ccc(C(CC(=O)O)NC(=O)C23CC4CC(CC(C4)C2)C3)cc1 (stereo not shown),14.5%
3,Cc1nn(C)c(C)c1S(=O)(=O)N1CCCC(C(=O)NC2CCCCC2)C1 (stereo not shown),7.91%
4,CS(=O)(=O)Nc1nnc(CCc2ccccc2)s1,16.8%
5,CC1C(=O)CC(c2ccccc2)NC1c1ccccc1 (stereo not shown),3.38%
6,CC(C)N(C)NC(=S)Nc1ccccc1,8.22%
7,O=C(C1=C[C@@H](c2ccc3c(c2)OCO3)C[C@@H](OCc2ccc(CO)cc2)O1)N1CCOCC1,7.02%
8,Cc1c(Cl)cccc1NC(=O)CCCCCN1C(=O)CCC1=O,12.8%
9,O=C(O)COc1ccccc1/C=N/NC(=O)CN1CCN(S(=O)(=O)c2ccc(Br)cc2)CC1,8.52%
10,COc1cccc(NC(=O)COC(=O)C2CCN(S(=O)(=O)c3cccs3)CC2)c1,12.8%
11,Cc1cccc(NC(=O)C2CCCN(S(=O)(=O)c3ccc4[nH]c(=O)ccc4c3)C2)n1 (stereo not shown),5.81%
12,COCCN1CCN(Cc2cn(C)nc2-c2cccc(Cl)c2)CC1,7.46%
13,CCn1c(C2CC(=O)N(Cc3ccccc3)C2)nc2ccccc21 (stereo not shown),5.22%
14,CN(C)C=O.COc1ccccc1CNC(=O)COC(=O)c1ccc(NC(N)=O)cc1,14.8%
15,C=CCN(CC=C)C(=O)CCc1nnc(CCc2c[nH]c3ccccc23)o1,11.7%
16,COc1ccc(N(CC2CO2)S(=O)(=O)c2ccccc2)cc1 (stereo not shown),14.5%
17,CC(C)[C@@]1(c2ccccc2)ON(c2ccccc2C(F)(F)F)C1=O,-3.67%
18,CN1CCN(S(=O)(=O)c2ccc(NC(=S)NC(=O)C3CC3)cc2)CC1,0.304%
19,CCc1ccc(NC(=O)CS(=O)CC(=O)NCCCc2ccccc2)cc1 (stereo not shown),9.79%
20,Cc1cc(Br)cc(Br)c1OCC(=O)NNC(=O)c1ccoc1C,13.8%
21,O=C(N/N=C/c1ccc2c(c1)OCO2)c1ccc2c(c1)OCCO2,12.8%
22,OC(COC(c1ccc(F)cc1)c1ccc(F)cc1)CN1CCc2ccccc2C1 (stereo not shown),-9.74%

row,SMILES,"hERG current change (%, negative = inhibition) at 1uM"
1,CC(=O)Nc1c(C(=O)O)[nH]c2ccccc12,18.5%
2,CC(C)(C)OC(=O)NCC(=O)N1CCC(C(=O)O)CC1,11.8%
3,COC(=O)c1ccc(C(C(=O)NC2CCCCC2)N(CCc2ccccc2)C(=O)Cc2cccs2)cc1 (stereo not shown),12.5%
4,CC(C)(C)C(=O)Nc1nc2c(s1)CN(Cc1ccccc1)CC2,12.3%
5,COc1ccccc1NC(=O)Cn1cnc2sc(C(=O)Nc3cc(OC)c(OC)c(OC)c3)c(C)c2c1=O,30%
6,Cc1ccc(Cn2c(C(CO)Nc3nc(-c4ccc(F)cc4)cs3)nc3ccccc32)cc1 (stereo not shown),20.1%
7,Cc1ccc2c(c1)C1CN(C)CCC1N2C(=O)c1ccccc1NS(=O)(=O)c1ccc(F)cc1C.Cl (stereo not shown),6.21%
8,CN(C)/C=C/C(=O)c1ccc2noc(-c3ccc(F)cc3)c2c1,13.5%
9,CCOC(=O)c1cccc(P(=O)(C(C)(C)C)C(C)(C)C)c1,14.4%
10,COc1ccc(Cl)cc1NC(=O)CN(C)CC(=O)Nc1cc(OC)c(OC)c(OC)c1,8.22%
11,CC(=O)N=C1SC2CS(=O)(=O)CC2N1c1cccc(Cl)c1Cl (stereo not shown),5.93%
12,Cc1cc(C(=O)COc2ccc3ccc(=O)oc3c2)c(C)n1Cc1cccs1,5.71%
13,O=C(Cn1cnc2c(nnn2Cc2ccc(F)cc2)c1=O)Nc1ccc2c(c1)OCCO2,-9.58%
14,Cc1ccc(NC(=O)c2cnccn2)c(OC(F)F)c1,3.8%
15,Cc1cccc(N2CCN(C(=O)CCn3c(=O)[nH]c4ccccc4c3=O)CC2)c1C,3.22%
16,Cc1cc(-c2ccc(S(=O)(=O)Nc3ccc(C#N)cc3)s2)on1,18.2%
17,Cn1c(SCCc2ccc([N+](=O)[O-])cc2)nccc1=O,-13.9%
18,CCc1[nH]nc2c1C(c1ccncc1)C(C#N)=C(N)O2 (stereo not shown),10.1%
19,CCn1c(SCC(=O)NCC2CCCO2)nnc1-c1ccccc1OC (stereo not shown),12.8%
20,O=C(NCc1ccc2c(c1)OCO2)c1cc(-c2ccccc2Cl)on1,12.4%
21,Fc1ccccc1Cc1noc(CN(Cc2ccccn2)CC2CCCO2)n1 (stereo not shown),5.69%
22,Cc1ccc(S(=O)(=O)C(c2ccccc2)c2c(C)noc2C)cc1 (stereo not shown),13%
